In PubChem BioAssay (NCI):
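The compound was tested at five concentrations on cells cultured in 96-well plates, with a 48-hour exposure period. GI50 = concentration required for 50% inhibition of growth. Definition used: TGI = concentration required for complete inhibition of growth.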

test system: NCI-H322M lung; experiment: growth of human tumour cells (NCI), 48 h

Structure (SMILES)	GI50	TGI
CCCCCCCCCCCCCCNc1nc(C(=O)OCC)ncc1-c1ccc(C(F)(F)F)cc1	> 100 µM	> 100 µM
CC(C)(C)c1ccc(-n2c3nc(=O)n(-c4ccccc4C(F)(F)F)c(=O)c-3cc3ccccc32)cc1		67.8 µM
Cc1ccc(C(=O)CCl)o1		> 10 µM
COc1cc2c(cc1OCCCCOc1cc3nc(C)nc(Cl)c3cc1OC)N=C[C@@H]1CCCN1C2=O		4.65 µM
CCOC(=O)c1cnc2oc(-c3ccc(OC)cc3)nn2c1=O		> 100 µM
COc1ccc2[nH]c(C(=O)N3CCN(C(=O)OCc4ccc5c(Br)cc(Br)c(O)c5n4)CC3)cc2c1	1.59 µM	3.04 µM
CN(C)c1ccc(/C=C(/C(=O)O)c2csc(-c3nc(/C(=C\c4ccc(N(C)C)cc4)C(=O)O)cs3)n2)cc1		> 100 µM
O=C(O)c1cccc(CN2CCCCC2)c1		> 100 µM
COC(=O)N1c2ccc3c(nc(Cc4ccccc4)n3[C@H]3CCC[C@H](C(=O)O)C3)c2CC[C@@H]1C	15.1 µM	> 100 µM
COC1OC(C)C(OC(=O)C(C)(C)C)C(OS(=O)(=O)c2ccc(C)cc2)C1OS(=O)(=O)c1ccc(C)cc1 (configuration not stated)		> 100 µM
CC(C)(C)OC(=O)CCC1NC(=O)[C@@H]2Cc3c([nH]c4ccccc34)C(C3CCCCC3)N2C1=O (some centres not stated)		> 100 µM
Cc1ccncc1N1CCN(c2ccnc(Cl)c2)C1=O	> 100 µM	> 100 µM
O=C(O)[C@@H]1CCCN1Cc1cc2cc3c(cc2c2cc(OCc4ccccc4)ccc12)OCO3	27 µM	85.3 µM
Cc1cc(C)n(-c2nc3ccccc3c(=O)[nH]2)n1		32.6 µM
CCCCCCC/C(=N\N=C(N)N)c1ccc(O)cc1	2.67 µM	9.08 µM
CSC1C=C(C(C)C)CCC1(C)SC (configuration not stated)		64.5 µM
O=C1CCC(=O)N1CNc1cccc(NCN2C(=O)CCC2=O)c1		> 100 µM
COc1ccc2oc(=O)cc(C3c4ccc([nH]4)C(c4cc(=O)oc5ccc(OC)cc45)c4ccc([nH]4)C(c4cc(=O)oc5ccc(OC)cc45)c4ccc([nH]4)C(c4cc(=O)oc5ccc(OC)cc45)c4ccc3[nH]4)c2c1 (configuration not stated)	3.73 µM	14.8 µM
C=C1C2CC[C@@](C)(O)C2[C@H]2OC(=O)C(=C)[C@@H]2C[C@H]1O (some centres not stated)		> 100 µM
CCC(=O)Oc1cc(/C=C/C(=O)O[C@H]2C[C@H]3CN4CCc5c([nH]c6cc(OC)ccc56)[C@@H]4C[C@@H]3[C@@H](C(=O)OC)[C@@H]2OC)ccc1OC	97.3 µM	> 100 µM
CCOC(=O)/C=C\[C@H]1OC(C)(C)O[C@H]1[C@H](O)[C@H]1COC(C)(C)O1		> 100 µM
C=C[C@H]1CN2CCc3c([nH]c4cc(O)ccc34)[C@@H]2C[C@@H]1C[C@H]1c2[nH]c3ccccc3c2CCN1C		11.2 µM
CC1(C)CC2(S(=O)(=O)c3ccccc3)ON1CC2S(=O)(=O)c1ccccc1 (configuration not stated)		> 100 µM
CC(C)=CCc1ccc2[nH]c3c(c2c1)C(=O)C(=O)C(C)=C3C(O)C(C)O (configuration not stated)		32.7 µM
CCCCCCCCCC1CC(=O)Oc2cccc(O)c21 (configuration not stated)		> 81.7 µM

Structure (SMILES)	GI50	TGI
CCOC(=O)c1c(O)cc(=O)[nH]c1N1CCOCC1		> 100 µM
CO/C=C(/C(=O)OC)c1ccccc1Oc1c(F)c(F)c(F)c(F)c1F		85.5 µM
Cc1nnc2sc(Cc3cnc(N)s3)nn12		> 100 µM
NCCSCC(N)C(=O)O (configuration not stated)	> 497 µM	> 497 µM
O=P(Nc1ccccc1)(Oc1ccccc1)N1CCN(c2ccccc2)CC1 (configuration not stated)		> 100 µM
O=[N+]([O-])c1ccc(-c2nc(/C=N/N3CCCCC3)cs2)o1		> 100 µM
CO/C(N)=C(\C#N)N=Cc1ccccc1		> 100 µM
COc1ccc2c(c1)-c1c(c3cc(OC)ccc3n1CCN1CCOCC1)CC2		> 100 µM
CCOC(=O)C1(C(C)=O)OC(=O)c2cnccc21 (configuration not stated)		> 100 µM
COc1c(-c2ccccc2)oc2c(CP(=O)(OC)OC)cccc2c1=O		> 100 µM
Cc1cc2c(C(C)C)c(O)c(O)c(C=NCC3CCCN4CCCCC34)c2cc1-c1cc2c(C=NCC3CCCN4CCCCC34)c(O)c(O)c(C(C)C)c2cc1C (configuration not stated)		32.4 µM
Cc1ccnc2[nH]c(-c3cccc4ccccc34)cc(=O)c12	0.0161 µM	> 100 µM
N#Cc1ccccc1C#C/C=C\C#Cc1cccs1	29.8 µM	96.6 µM
COC(=O)[C@@H](NC1(c2ccccc2)c2ccccc2-c2ccccc21)[C@H](OC(=O)[C@H]1CCCN1S(=O)(=O)c1ccccc1)C(=O)OC		> 100 µM
O=c1c2c3c(sc2n2c(CCl)nnc2n1Cc1ccccc1)CCCC3	6.13 µM	16.8 µM
NC(=O)[C@@H](CCC(F)(F)F)N(Cc1ccc(-c2ncon2)cc1F)S(=O)(=O)c1ccc(Cl)cc1	> 55.5 µM	> 100 µM
O=c1c2ccccc2sc2nc(CCl)nn12		25.9 µM
COc1ccc(-c2nc3cc(F)ccc3s2)cc1O		> 100 µM
COc1cc(C2c3cc4c(cc3[C@@H](NCCCN3CCCC3=O)C3COC(=O)[C@H]23)OCO4)cc(OC)c1O (some centres not stated)		> 100 µM
N#C/C(=C\c1ccc(Cl)cc1)c1nc(-c2cc3ccccc3oc2=O)cs1		> 100 µM
CC(O)C(C(=O)O)N(CC1(O)OCC(O)C(O)C1O)N=O (configuration not stated)		> 100 µM
CCOC(=O)C(=O)Nc1cccc(Cl)c1C		> 100 µM
CC(C)(C)c1cc(COc2cc(COc3ccc(-c4c5c(nc6c4CCc4ccc(-c7c8ccccc8nc8ccccc78)cc4-6)-c4cc(-c6c7ccccc7nc7ccccc67)ccc4CC5)cc3)cc(OCc3cc(C(C)(C)C)cc(C(C)(C)C)c3)c2)cc(C(C)(C)C)c1		> 100 µM
COc1nc(NC2OCC(O)C(O)C2O)c(NC2OCC(O)C(O)C2O)c(=O)n1C (configuration not stated)		> 100 µM
